In the supplement of paper PMC6089552:
Among all 3,200 compounds or so, about 300 (9.4%) showed activity. The list shows a part of the results, in another mix than the full data.

Test system: A673/TR/shEF
Assay: cell viability (LOESS-normalised, relative to median of negative controls) (log2 ratio); higher = more viable cells (less compound effect), active = hit call of the paper (over 3 MAD below the median)
Settings: treatment time: 72 h
Method in brief: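 A673/TR/shEF Ewing sarcoma cells (1,500 per well, 384-well plates) were grown with or without doxycycline to induce EWS-FLI1 shRNA knockdown, starting 24 h before compounds. Library compounds at two or more concentrations, with DMSO controls, were added for three days. Cell viability was read by CellTiter-Glo luminescence on an Envision reader, then LOESS-corrected per plate, divided by the median of negative controls and log2-transformed. Hits were wells at least three median absolute deviations from the median of all screened wells.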

[1] = 0.25 µM, library screen: screen2, EWS-FLI1 expression: high (no doxycycline)
[2] = 0.25 µM, library screen: screen2, EWS-FLI1 expression: low (doxycycline-induced shRNA knockdown)
[3] = 2.5 µM, library screen: screen2, EWS-FLI1 expression: high (no doxycycline)
[4] = 2.5 µM, library screen: screen2, EWS-FLI1 expression: low (doxycycline-induced shRNA knockdown)
[5] = 0.25 µM, library screen: screen1, EWS-FLI1 expression: high (no doxycycline)
[6] = 0.25 µM, library screen: screen1, EWS-FLI1 expression: low (doxycycline-induced shRNA knockdown)
[7] = 2.5 µM, library screen: screen1, EWS-FLI1 expression: high (no doxycycline)
[8] = 2.5 µM, library screen: screen1, EWS-FLI1 expression: low (doxycycline-induced shRNA knockdown)
[9] = 0.103 µM, library screen: screen3, EWS-FLI1 expression: high (no doxycycline)
[10] = 0.103 µM, library screen: screen3, EWS-FLI1 expression: low (doxycycline-induced shRNA knockdown)
[11] = 0.308 µM, library screen: screen3, EWS-FLI1 expression: high (no doxycycline)
[12] = 0.308 µM, library screen: screen3, EWS-FLI1 expression: low (doxycycline-induced shRNA knockdown)
[13] = 0.926 µM, library screen: screen3, EWS-FLI1 expression: high (no doxycycline)
[14] = 0.926 µM, library screen: screen3, EWS-FLI1 expression: low (doxycycline-induced shRNA knockdown)
[15] = 2.8 µM, library screen: screen3, EWS-FLI1 expression: high (no doxycycline)
[16] = 2.8 µM, library screen: screen3, EWS-FLI1 expression: low (doxycycline-induced shRNA knockdown)
[17] = 8.3 µM, library screen: screen3, EWS-FLI1 expression: high (no doxycycline)
[18] = 8.3 µM, library screen: screen3, EWS-FLI1 expression: low (doxycycline-induced shRNA knockdown)
[19] = 25 µM, library screen: screen3, EWS-FLI1 expression: high (no doxycycline)
[20] = 25 µM, library screen: screen3, EWS-FLI1 expression: low (doxycycline-induced shRNA knockdown)

Measured: cell viability (log2)

CCCOC(=O)c1c(-c2ccccc2)nc(CC)c(C(=O)SCC)c1CCC
inactive: [1] 0.156 | [2] 0.159 | [3] 0.133 | [4] 0.152

O=c1oc2cc3occc3cc2c2oc3cc4c(cc3c12)OCO4
inactive: [5] 0.103 | [6] -0.01 | [7] 0.0469 | [8] 0.0004

CCOc1nc2cccc(C(=O)OC(C)OC(=O)OC3CCCCC3)c2n1Cc1ccc(-c2ccccc2-c2nn[nH]n2)cc1 (stereo unspecified)
inactive: [9] -0.0598 | [10] 0.00554 | [11] 0.0406 | [12] 0.0035 | [13] -0.0442 | [14] 0.0408 | [15] -0.0362 | [16] 0.0242 | [17] -0.0149 | [18] -0.00871 | [19] 0.0372 | [20] -0.00417

O=c1cc(O)cc(/C=C/c2ccc(O)c(O)c2)o1
inactive: [1] 0.159 | [2] 0.05 | [3] 0.0405 | [4] 0.104

Nc1ccc(S(N)(=O)=O)cc1
inactive: [9] 0.0177 | [10] 0.0584 | [5] 0.0442 | [6] 0.18 | [11] 0.117 | [12] 0.121 | [13] 0.099 | [14] 0.105 | [7] 0.0879 | [8] 0.144 | [15] 0.109 | [16] 0.0891 | [17] 0.117 | [18] 0.0979 | [19] 0.0658 | [20] 0.0937

CCCCCCCCCCCCC(C(=O)O)C(C)C(=O)O (stereo unspecified)
inactive: [5] 0.000833 | [6] 0.0282 | [7] 0.0686 | [8] 0.041

Nc1ncnc2c1ncn2[C@H]1C[C@H](O)[C@@H](CO)O1
inactive: [5] 0.0888 | [6] 0.137 | [7] 0.0495 | [8] 0.162

CCN1CCC[C@H]1CNC(=O)c1cc(S(N)(=O)=O)ccc1OC
inactive: [1] 0.115 | [2] 0.0959 | [3] 0.195 | [4] 0.119

COc1ccccc1NC1CC(C)N(C(=O)c2ccc(C)cc2)c2c(C)cccc21 (stereo unspecified)
inactive: [5] 0.107 | [6] 0.0693 | [7] 0.128 | [8] 0.111

CCCCC#Cc1nc(N)c2ncn([C@@H]3O[C@H](C(=O)NCC)[C@@H](O)[C@H]3O)c2n1
inactive: [1] 0.0647 | [2] 0.00816 | [3] 0.102 | [4] 0.139

CC(CCc1ccc(O)cc1)NCCc1ccc(O)c(O)c1 (stereo unspecified)
inactive: [5] -0.00471 | [6] 0.0556 | [1] 0.224 | [2] 0.115 | [7] 0.0295 | [8] 0.169 | [3] 0.183 | [4] 0.131

N[C@@H](CCC(=O)N[C@@H](CSN=O)C(=O)NCC(=O)O)C(=O)O
inactive: [1] 0.12 | [2] 0.0819 | [3] 0.104 | [4] 0.0641

CCC(C)(C)c1ccc(CC(C)CN2C[C@@H](C)O[C@@H](C)C2)cc1 (stereo partly specified)
inactive: [9] 0.114 | [10] 0.0848 | [11] -0.00054 | [12] 0.0379 | [13] 0.0992 | [14] 0.056 | [15] 0.051 | [16] 0.121 | [17] 0.0993 | [18] 0.0696 | [19] 0.0674 | [20] 0.0662

CCOC(=O)c1ccc(C#Cc2ccc3c(c2)C(C)(C)CCS3)nc1
inactive: [9] 0.0442 | [10] -0.00419 | [11] 0.0366 | [12] 0.034 | [13] -0.019 | [14] 0.0293 | [15] -0.068 | [16] 0.0113 | [17] -0.0101 | [18] 0.0754 | [19] 0.0107 | [20] 0.0951

CC[C@]12CCCN3CCc4c(n(c5ccccc45)[C@@](O)(C(=O)OC)C1)[C@@H]32
inactive: [5] 0.0647 | [6] 0.0435 | [7] 0.103 | [8] 0.075

COc1ccc(CN2CCN(Cc3ccc(C)cc3)CC2)c(OC)c1OC
inactive: [5] 0.0669 | [6] 0.0696 | [7] 0.138 | [8] 0.00566

COCCCN1C(=O)C(=Cc2sccc2C)SC1=S
inactive: [5] 0.112 | [6] 0.0557 | [7] 0.117 | [8] -0.0013

O=c1[nH]c(=O)n([C@H]2C[C@H](O)[C@@H](CO)O2)cc1/C=C/Br
inactive: [1] 0.184 | [2] 0.138 | [3] 0.072 | [4] 0.108

Cn1c(=O)c2c(ncn2CC(O)CO)n(C)c1=O (stereo unspecified)
inactive: [9] 0.0165 | [10] 0.0126 | [5] 0.131 | [6] 0.16 | [11] 0.00785 | [12] 0.0143 | [13] 0.0371 | [14] 0.0614 | [7] 0.188 | [8] 0.133 | [15] 0.0324 | [16] 0.0246 | [17] 0.104 | [18] 0.0719 | [19] 0.175 | [20] 0.0892

Nc1nccs1
inactive: [5] 0.00973 | [6] 0.0738 | [7] 0.0951 | [8] 0.156

CC(C)CCCC(C)C1CCC2C3CC=C4CC(=O)CCC4(C)C3CCC12C (stereo unspecified)
inactive: [5] 0.0196 | [6] 0.0967 | [7] 0.0967 | [8] 0.133

NC(=O)c1cccnc1
inactive: [9] 0.137 | [10] -0.0312 | [11] 0.105 | [12] 0.0868 | [13] 0.118 | [14] 0.0325 | [15] 0.0811 | [16] 0.0605 | [17] 0.102 | [18] 0.0902 | [19] 0.0651 | [20] 0.111

NCCC(=O)N[C@@H](Cc1cnc[nH]1)C(=O)O
inactive: [5] 0.026 | [6] 0.0201 | [7] 0.0679 | [8] 0.084

OCc1ccc(-c2nn(Cc3ccccc3)c3ccccc23)o1
inactive: [1] 0.207 | [2] 0.0743 | [3] 0.176 | [4] 0.0539
